Where “and” joins values, the source holds several entries; their conditions need not be identical. Equal entries are not always repeated. Screen size: about 110,000 compounds; about 230 (0.21%) showed an effect of 50% or more. This is one part of the list.
molecular target: DPAP1 (Plasmodium falciparum, UniProt Q8IIJ9); experiment: primary screen, percent inhibition; read by cleavage of a fluorogenic dipeptide substrate; higher = more effect of the substance; parameters: species or system P. falciparum D10 trophozoite lysates; single well
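Also: 30 min substrate incubation versus DMSO and 10 µM JCP410 controls.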

Chain of DPAP1 (Q8IIJ9 whole entry, looked up): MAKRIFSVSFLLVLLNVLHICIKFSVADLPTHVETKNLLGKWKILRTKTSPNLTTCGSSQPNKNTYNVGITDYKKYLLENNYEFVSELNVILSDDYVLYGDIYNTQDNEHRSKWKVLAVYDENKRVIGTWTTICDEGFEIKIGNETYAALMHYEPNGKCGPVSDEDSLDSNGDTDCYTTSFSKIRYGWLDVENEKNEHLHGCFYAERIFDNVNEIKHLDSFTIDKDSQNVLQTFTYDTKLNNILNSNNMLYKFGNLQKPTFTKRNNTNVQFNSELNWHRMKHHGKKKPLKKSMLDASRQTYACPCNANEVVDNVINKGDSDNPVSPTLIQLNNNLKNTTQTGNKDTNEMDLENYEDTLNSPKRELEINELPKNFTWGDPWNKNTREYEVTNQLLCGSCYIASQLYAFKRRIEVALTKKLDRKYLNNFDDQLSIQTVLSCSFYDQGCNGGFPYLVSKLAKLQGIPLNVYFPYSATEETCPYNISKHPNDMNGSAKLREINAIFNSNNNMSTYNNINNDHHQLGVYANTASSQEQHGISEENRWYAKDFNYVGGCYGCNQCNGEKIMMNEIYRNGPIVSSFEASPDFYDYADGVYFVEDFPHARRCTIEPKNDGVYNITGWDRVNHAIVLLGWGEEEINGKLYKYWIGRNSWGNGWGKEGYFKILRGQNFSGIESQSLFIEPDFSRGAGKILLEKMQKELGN

Row | SMILES | % Inhibition @ 10 uM
1 | C=C1c2cc(OC)ccc2NC(=O)N1c1ccccc1 | -9.94%
2 | CCOC(=O)c1c(C)[nH]c(C)c1S(=O)(=O)N1CCC(C(=O)NC2CCCc3ccccc32)CC1 (stereo not shown) | -1.05%
3 | CCCOc1cccc(C2c3c(-c4ccccc4O)n[nH]c3C(=O)N2Cc2ccncc2)c1 (stereo not shown) | -5.33%
4 | CCN1CCN(S(=O)(=O)c2ccc(-c3ccc(Cl)cc3)cc2)CC1 | -3.29%
5 | Cc1cccc(-c2noc(CNC(=O)CCN3C(=O)c4ccccc4C3=O)n2)c1 | -3.24%
6 | CC(C)CC(NC(=O)c1ccc(NC(=O)Nc2nncs2)cc1)C(=O)NCC#N (stereo not shown) | -5.64%
7 | CC(Oc1ccccc1)C(=O)Nc1nc2ccccc2s1 (stereo not shown) | -0.872%
8 | Cc1ccc(-c2cc3c(nn2)-c2ccccc2C3=O)cc1 | 2.86%
9 | NC(=O)c1cc(S(=O)(=O)N(CCc2ccncc2)CC2CCCO2)cs1 (stereo not shown) | -2.86%
10 | CC(=O)OC1(c2ccccc2)CC(C)CN(C(C)(C)C)C1 (stereo not shown) | 2.22%
11 | O=C1NC2SCCCN2C(O)=C1C(C1=C(O)N2CCCSC2NC1=O)c1ccc(O)cc1 (stereo not shown) | 1.96%
12 | O=C(O)CCSc1nccn1Cc1ccccc1 | -0.0217%
13 | O=C(C1CCC(CNS(=O)(=O)c2ccc(Cl)cc2)CC1)N1CCN(Cc2ccccc2)CC1 (stereo not shown) | -8.34%
14 | CC1(C)Cc2nc(O)c(C#N)cc2CO1 | -1.93%
15 | CC1=C(C(=O)Nc2ccccn2)C(c2ccccc2C)C2=C(O)CC(C)(C)CC2=N1 (stereo not shown) | -0.305%
16 | COc1cccc(C2=N/C(=C\c3cc(OC)c(OC)cc3OC)C(=O)O2)c1 | -34.6%
17 | CN(Cc1ccccc1)c1c(-c2ccccc2)c(=O)c1=O | 0.867%
18 | O=C1N=C(Nc2ccc(Br)cc2)S/C1=C\c1cccs1 | -4.7%
19 | CS(=O)(=O)c1nc(S(=O)(=O)c2ccc(Cl)cc2)c(NCC2CCCO2)s1 (stereo not shown) | -0.522%
20 | COc1cc2c(cc1OC)CN(CCC(=O)O)CC2 | 1.04%
21 | CC1CCCC(NC(=O)Cn2cnc3c(nc4n3CCCCC4)c2=O)C1C (stereo not shown) | 8.03%
22 | CC(C)CC(NC(=O)c1cnccn1)C(=O)NCC#N (stereo not shown) | -5.64%
23 | CCOC(=O)C1=CN(C(C)C)C=C(C(=O)OCC)C1c1ccc(OCC)cc1 | 1.86%
24 | CCCOc1ccc(N2C(=O)CC(NCCc3ccccc3)C2=O)cc1 (stereo not shown) | -0.28%
25 | CCCCn1cnc2scc(-c3ccc(C)cc3)c2c1=O | 7.33% and 1.19%

Row | SMILES | % Inhibition @ 10 uM
26 | O=C(c1sc2ccccc2c1Cl)N1CCC(Cc2ccccc2)CC1 | 1.88%
27 | Cc1ccc2c(Cl)c(C(=O)N3CCN(c4ccc([N+](=O)[O-])cc4)CC3)sc2c1 | 3.76%
28 | N#Cc1c(NC(=O)Nc2ccc(Cl)cc2)sc2c1CCC2 | 2.67%
29 | C=CCN1C(=O)/C(=C\c2ccc(N(CC)CC)cc2O)SC1=S | -5.62%
30 | CC(=O)Nc1ccc(NC(=O)c2cccc(Cl)c2Cl)cc1 | 3.74%
31 | CCC(C)NC(=O)Cn1ncc2c3ccccc3n(Cc3ccccc3)c2c1=O (stereo not shown) | -1.58%
32 | COc1ccc(CCNC(=O)C2(S(=O)(=O)c3ccc(Cl)cc3)CC2)cc1OC | -0.668%
33 | CN1C2CCC1CC(NCc1ccccc1)C2 (stereo not shown) | 0.986%
34 | Cc1ccc2c(c1C)OC(=O)CC2c1ccccc1 (stereo not shown) | 4.61%
35 | COc1ccccc1-c1cc(-c2ccccc2)nc(SC(C(N)=O)c2ccccc2)c1C#N (stereo not shown) | 6.18%
36 | Cc1ccc(S(=O)(=O)Nc2ccc(NC(=O)C3CCCCC3C(=O)O)cc2)cc1 (stereo not shown) | -3.45%
37 | CC(C)(C)NC(=O)c1cccc2c1C(=O)N(C1CCCCC1)C2 | -1.03%
38 | CC(C)(C)C(=O)CC(c1ccc(Cl)cc1)C1C(=O)c2ccccc2C1=O (stereo not shown) | 11.4%
39 | COC(=O)C1=C(O)/C(=C/c2ccc(OCC(=O)NC3CCCCC3)cc2)N=C1C | -3.4%
40 | CS(=O)(=O)N(CC(=O)Nc1cccnc1)c1ccccc1Br | 2.82%
41 | CCOC(=O)C1=C(COc2ccc(F)cc2Cl)NC(=O)NC1c1ccc2c(c1)OCO2 (stereo not shown) | -4.04%
42 | COCCN1C(=O)c2ccccc2C(C(=O)NC2CCCC(C)C2C)C1c1cccs1 (stereo not shown) | 3.54%
43 | OC(COc1ccc(Br)cc1)CN1CCN(Cc2ccc(Cl)cc2)CC1 (stereo not shown) | -1.36%
44 | COc1ccc(CCNC(=O)C2CCCN(S(=O)(=O)N3CCCCC3)C2)c(OC)c1 (stereo not shown) | -1.38%
45 | Cc1nn(C(C)C(=O)NC(C)c2ccccc2)c(=O)c2cc3occc3n12 (stereo not shown) | -3.79%
46 | COCCNC(=O)/C(C#N)=C/c1c(Oc2ccc(Br)cc2)nc2c(C)cccn2c1=O | -3.23%
47 | CC(C)CCN(CCOC(=O)Nc1ccccc1)C(=O)Nc1ccccc1 | 2.62%
48 | COC(=O)C1=CN(Cc2cccs2)C=C(C(=O)OC)C1c1ccc(C(F)(F)F)cc1 | 3.47%
49 | CCSC1=NSC2=NC(=O)/C(=C\c3ccc4c(c3)OCO4)C(=N)N12 | -5.51%
